In PubChem BioAssay (NCATS):
Inconclusive means that the source gave no clear call. Such entries were picked first, then a sample of the others. Potencies of inconclusive entries are left out as doubtful fits. Calls of active or inactive are those of the source. Calls follow the shape of the dose curve; as a rule, active = well fitted inhibition curve with a large enough effect; inconclusive = small, poorly fitted or top-dose-only effect; inactive = flat fitted curve, though single readings scatter.

Biological target: Voltage-gated inwardly rectifying potassium channel KCNH2 (Homo sapiens) (UniProt Q12809)
Experiment: qHTS Assay for Small Molecule Inhibitors of the Human hERG Channel Activity (AID 588834);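 also: lower thallium flux fluorescence means stronger hERG block; nearly all actives have a fitted effect of over 50% in size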; as to activity change, negative = inhibition: top concentration of the series differs between compounds
Conditions: U2OS BacMam hERG, FluxOR thallium flux fluorescence; series mostly up to 46.1 µM; activity change, negative = inhibition: at the top concentration
Text: NIH Chemical Genomics Center [NCGC]
National Institutes of Environmental Health Sciences [NIEHS]
National Toxicology Program [NTP]
We have developed a 1536-well cell-based assay for quantitative high throughput screening (qHTS) to determine in vitro hERG channel blockage as a measure of cardio toxicity with small molecules. This particular assay uses the U2OS cell line which is derived from human osteosarcoma.
NCGC Assay Protocol Summary:
HERG assay (FluxORTM thallium flux assay) was initially developed by Invitrogen/Molecular Probes, and then miniaturized into 1536-well plate in a homogeneous format by NCGC. This assay measures the activity of potassium channel using thallium dye (FluxOR) flux as surrogate measurement for potassium into the cells with a FDSS-7000 kinetic plate reader (Hamamatsu Corp., Hamamatsu City, Japan). The hERG ion channel is transduced into mammalian cells (U2OS) using a baculovirus (Bacmam) construct harboring the hERG K+ ion channel. So far we screened LOPAC1280 library (Sigma), the NTP collection of 1408 compounds, and the NCGC Pharmaceutical Collection (NPC), in which many well defined HERG blockers are present. The rank order potencies of many of these compounds are similar to that of other HERG assays (membrane potential, Rb+ flux, patch clamp, etc). This quick and homogeneous assay is also found to be sensitive, specific, and robust.
Using the FluxORTM thallium flux assay, the activity of potassium channel using thallium dye (FluxOR) flux as surrogate measurement for potassium into the cells was measured in the U2OS cell line transduced with hERG K+ ion channel using a baculovirus (Bacmam) using Opti-MEM medium (Invitrogen) containing 2% fetal calf serum (FCS, HyCone) following loading buffer addition, compound treatment for around 10 minutes and finally adding stimulation buffer. The assay was performed in black clear Kalypsys 1536-well plates. In the screen, Astemizole was used as positive controls. Library compounds were measured for their ability to cause hERG channel blockage in the cell line, as reflected by a decrease in fluorescence intensity, in a concentration-dependent manner. […] AC50 values were determined from concentration-response data modeled with the standard Hill equation.
qHTS protocol for hERG-U2OS cellular assay
[Step] [Parameter] [Value] [Description]
1. Day 1: Replace medium in 70-80% confluent T225 flask with 2.5 mL of hERG-BacMam virus plus 12.5 mL of phosphate buffered saline (PBS) (corresponding roughly to a multiplicity of infection ratio of 100 virus particles/cell)
2. Incubation: 4 hrs @ room Temperature in Dark
3. Reagent; Remove virus; wash once with 25 ml DPBS
4. Reagent; 35 ml culture medium
5. Incubation; 37 °C overnight
6. Day2: Reagent; 3 uL; 2000 U2OS cells/well
7. Time; 4 hr; 37 °C incubation
8. Loading buffer; 1 uL; 0.7X;
9. Incubation: 1hr @ RT in Dark.
12. Time; 10min; 37 °C incubation
13. Read fluorescence Intensity on FDSS for 10 Sec with 1 sec interval
14. Reagent; 1 uL; stimulation buffer
15. Read fluorescence Intensity on FDSS for 2 min with 1 sec interval
16. Detection; Fluorescence Intensity; FDSS
% is scaled to controls: 0 for no effect and ±100 for the full control effect; potency is read from the fitted curve at half-maximal effect; tags tell the direction and shape of the fitted curve.

Chain of UniProt Q12809 (Q12809 whole entry, looked up): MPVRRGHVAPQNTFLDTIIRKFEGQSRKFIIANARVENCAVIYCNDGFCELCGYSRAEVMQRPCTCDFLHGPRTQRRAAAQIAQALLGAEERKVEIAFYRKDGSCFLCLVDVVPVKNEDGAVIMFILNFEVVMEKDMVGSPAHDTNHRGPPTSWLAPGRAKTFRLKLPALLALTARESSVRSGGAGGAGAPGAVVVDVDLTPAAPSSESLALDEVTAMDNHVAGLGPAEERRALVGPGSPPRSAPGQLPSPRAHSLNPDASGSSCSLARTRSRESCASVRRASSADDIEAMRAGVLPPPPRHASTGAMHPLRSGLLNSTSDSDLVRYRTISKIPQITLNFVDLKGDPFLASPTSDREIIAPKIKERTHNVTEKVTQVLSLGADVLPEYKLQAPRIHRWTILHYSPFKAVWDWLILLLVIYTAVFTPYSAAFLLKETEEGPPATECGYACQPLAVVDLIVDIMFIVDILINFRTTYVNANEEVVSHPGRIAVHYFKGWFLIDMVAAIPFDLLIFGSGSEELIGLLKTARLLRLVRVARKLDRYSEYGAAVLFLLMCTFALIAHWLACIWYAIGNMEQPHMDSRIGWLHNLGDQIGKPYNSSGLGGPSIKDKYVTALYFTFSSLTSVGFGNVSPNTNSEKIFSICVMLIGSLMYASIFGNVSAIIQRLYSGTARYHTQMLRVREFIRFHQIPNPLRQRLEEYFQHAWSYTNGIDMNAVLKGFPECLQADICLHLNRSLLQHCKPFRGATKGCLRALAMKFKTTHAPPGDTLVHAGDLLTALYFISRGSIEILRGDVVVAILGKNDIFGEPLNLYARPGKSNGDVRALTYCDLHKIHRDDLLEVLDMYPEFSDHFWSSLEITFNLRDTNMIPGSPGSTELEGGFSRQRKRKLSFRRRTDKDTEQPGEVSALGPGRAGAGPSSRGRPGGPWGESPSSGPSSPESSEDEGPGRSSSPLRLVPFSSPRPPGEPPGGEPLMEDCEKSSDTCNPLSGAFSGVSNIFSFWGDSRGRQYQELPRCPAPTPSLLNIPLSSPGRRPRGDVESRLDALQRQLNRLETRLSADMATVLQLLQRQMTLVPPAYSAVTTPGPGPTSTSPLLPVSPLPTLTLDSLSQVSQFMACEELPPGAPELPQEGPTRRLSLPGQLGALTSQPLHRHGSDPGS

SMILES | activity change, negative = inhibition | Potency
CCN(CC)C(C)C(=O)c1ccccc1 (stereo not given) | inactive: 24.3% | –
C[C@H]1CC[C@@H]2[C@@H](C)[C@H]3[C@H](C[C@H]4[C@@H]5CC=C6CC(O[C@@H]7O[C@H](CO)[C@H](O)[C@H](O[C@@H]8O[C@H](CO)[C@@H](O)[C@H](O)[C@H]8O)[C@H]7O[C@H]7O[C@@H](C)[C@H](O)[C@@H](O)[C@H]7O)CC[C@]6(C)[C@H]5CC[C@]34C)N2C1 (stereo not given in full) | – | inconclusive [inhibitor, full curve, poor fit]
Cc1ccc(Cl)c(O)c1 | – | inconclusive [inhibitor, single point]
O=C(Nc1ccc(Br)cc1)c1cc(Br)cc(Br)c1O | – | inconclusive [inhibitor, single point]
Cc1ccc(N=CN(C)C=Nc2ccc(C)cc2C)c(C)c1 | – | inconclusive [inhibitor, partial curve, poor fit]
c1ccc2nc(N3CCNCC3)ccc2c1 | – | inconclusive [inhibitor, single point]
CCC/C=C/C=C/C(=O)O[C@H]1/C(=C/C(=O)OC)C[C@H]2C[C@H]([C@@H](C)O)OC(=O)C[C@H](O)C[C@@H]3C[C@H](OC(C)=O)C(C)(C)[C@](O)(C[C@@H]4C/C(=C/C(=O)OC)C[C@H](/C=C/C(C)(C)[C@]1(O)O2)O4)O3 | – | inconclusive [inhibitor, partial curve]
COc1ccc2c(c1OC)CN1CCc3cc4c(cc3C1C2)OCO4 (stereo not given) | – | inconclusive [inhibitor, partial curve, poor fit]
[H+].[H+].[Hg+2].[O-]B([O-])[O-].[c-]1ccccc1 | – | active: 10 µM
O=CC=O | – | inactive
Clc1cccc(SC2CCNCC2)n1 | – | inconclusive [inhibitor, single point]
ClC1=C(Cl)C2(Cl)C(CBr)CC1(Cl)C2(Cl)Cl (stereo not given) | – | active: 22.4 µM
COc1ccc(Cc2nccc3cc(OC)c(OC)cc23)cc1OC | – | inactive
Clc1ccc(CCC(Cn2ccnc2)Sc2c(Cl)cccc2Cl)cc1 (stereo not given) | – | active: 5.01 µM
CN1C(=O)COc2c(C(=O)NC3CN4CCC3CC4)cc(Cl)cc21 (stereo not given) | – | inconclusive [inhibitor, single point]
CN1C[C@H](C(=O)N[C@]2(C)O[C@@]3(O)[C@@H]4CCCN4C(=O)[C@H](Cc4ccccc4)N3C2=O)C=C2c3cccc4[nH]cc(c34)C[C@H]21 | – | inconclusive [inhibitor, partial curve, poor fit]
Cc1c(Cl)c(=O)oc2cc(OP(=O)(OCCCl)OCCCl)ccc12 | – | inconclusive [inhibitor, partial curve, poor fit]
CN1C(=O)[C@@H](NC(=O)c2cc3ccccc3[nH]2)N=C(c2ccccc2)c2ccccc21 | – | inconclusive [inhibitor, partial curve, poor fit]
O=c1n(Cl)c(=O)n(Cl)c(=O)n1Cl | inactive: -17.4% | –
CCC(C)(C)c1ccc(O)cc1 | – | inconclusive [inhibitor, single point]

SMILES | activity change, negative = inhibition | Potency
COc1c2c(cc3c1OCO3)CCN(C)C2 | inactive: 6.16% [at 20.6 µM] | –
C=CCOC(Cn1ccnc1)c1ccc(Cl)cc1Cl (stereo not given) | – | inconclusive [inhibitor, partial curve, poor fit]
C[C@]12Cc3nonc3C[C@@H]1CC[C@@H]1[C@@H]2CC[C@@]2(C)[C@H]1CC[C@]2(C)O | – | inconclusive [inhibitor, partial curve, poor fit]
CCC(COC(=O)c1cc(OC)c(OC)c(OC)c1)(c1ccccc1)N(C)C (stereo not given) | – | inconclusive [inhibitor, partial curve, poor fit]
CN[C@@H]1C[C@@H](c2ccc(Cl)c(Cl)c2)c2ccccc21 | – | active: 12.6 µM
O=c1oc2ccccc2c(O)c1Cc1c(O)c2ccccc2oc1=O | – | inconclusive [inhibitor, single point]
CN1CCc2cc(Cl)c(O)cc2[C@H]2c3ccccc3CC[C@@H]21 | – | inconclusive [inhibitor, partial curve, poor fit]
C[C@]12C[C@H]3S[C@H]3C[C@@H]1CC[C@@H]1[C@@H]2CC[C@]2(C)[C@@H](O)CC[C@@H]12 | – | inconclusive [inhibitor, single point]
CCC1(c2ccccc2)CCC(=O)NC1=O (stereo not given) | – | inconclusive [inhibitor, single point]
COc1cc(N)c(Cl)cc1C(=O)NC1CN2CCC1CC2 (stereo not given) | – | inconclusive [inhibitor, partial curve, poor fit]
Oc1cc[c]([Hg][Cl])cc1 | – | inconclusive [inhibitor, partial curve]
C[N+](C)(C)CC(=O)O | – | inactive
O=C(NC(=O)c1c(F)cccc1F)Nc1cc(Cl)c(OC(F)(F)C(F)C(F)(F)F)cc1Cl (stereo not given) | inactive: -2.8% | –
C[C@H]1O[C@@H](O[C@H]2[C@@H](O)C[C@H](O[C@H]3[C@@H](O)C[C@H](O[C@H]4CC[C@@]5(C)[C@H](CC[C@@H]6[C@@H]5CC[C@]5(C)[C@@H](C7=CC(=O)OC7)CC[C@]65O)C4)O[C@@H]3C)O[C@@H]2C)C[C@H](O)[C@@H]1O | – | inconclusive [inhibitor, partial curve]
O=C1Nc2ccc(Cl)cc2C(c2ccccc2Cl)=NC1O (stereo not given) | – | inconclusive [inhibitor, partial curve, poor fit]
O=c1[nH]c(=O)n(Cl)c(=O)n1Cl | – | inconclusive [inhibitor, single point]
CC(C)(C)NCC(O)c1ccccc1Cl (stereo not given) | – | inactive
CC(Cc1ccccc1)NCc1ccccc1Cl (stereo not given) | – | inconclusive [inhibitor, single point]
Oc1ccc2[nH]cc(CCCCN3CC=C(c4ccccc4)CC3)c2c1 | – | active: 1.26 µM
Cc1ncsc1CCCl | – | inconclusive [inhibitor, single point]
